According to paper PMC12069340 (Frontiers in Cellular and Infection Microbiology, 2025):
Counter-ions that a name gives are not always drawn.

Tested on: influenza virus PR8

SMILES	stage of viral replication inhibited
CC(=O)OCOC(=O)CN(CC(=O)OCOC(C)=O)c1ccccc1OCCOc1ccccc1N(CC(=O)OCOC(C)=O)CC(=O)OCOC(C)=O [BAPTA-AM]	early
O=C(c1ccc(OCCCc2cnc[nH]2)cc1)C1CC1 [Ciproxifan]	exhibited inhibition when administered during the initial stages of viral replication
CC(COc1ccccc1)NC(C)C(O)c1ccc(O)cc1 (centres unmarked) [Isoxsuprine, Isoxsuprine hydrochloride]	exhibited inhibition when administered during the initial stages of viral replication
CCCN(CCc1cccs1)[C@H]1CCc2c(O)cccc2C1 [Rotigotine]	exhibited inhibition when administered during the initial stages of viral replication
CCOC(=O)C1=C[C@@H](OC(CC)CC)[C@H](NC(C)=O)[C@@H](N)C1 [oseltamivir, Oseltamivir]	late
